Test results reported in the supplement of paper PMC4604168 (melanoma cell lines).
Some of the results follow. Single values are uncertain, as repeats are few or missing.

Legend:
Assay in all cases: cell count relative to DMSO control; melanoma cells; higher = more viable cells
Conditions in all cases: library dose: low library concentration; 72 h
MZ2-MEL = system: MZ2-MEL
MeWo = system: MeWo
RPMI7951 = system: RPMI7951
RVH-421 = system: RVH-421
SkMel28 = system: SkMel28
SkMel2 = system: SkMel2
SkMel30 = system: SkMel30
SkMel5 = system: SkMel5
UACC257 = system: UACC257
UACC62 = system: UACC62
WM115 = system: WM115
WM1716 = system: WM1716
WM1745 = system: WM1745
WM3526 = system: WM3526
WM3619 = system: WM3619
WM451Lu = system: WM451Lu
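Also: cell number obtained by counting DAPI-stained nuclei in high-throughput microscope images with image analysis software, screen run in 1,536-well plates.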

SMILES | cell count (MZ2-MEL) [%] | cell count (MeWo) [%] | cell count (RPMI7951) [%] | cell count (RVH-421) [%] | cell count (SkMel28) [%] | cell count (SkMel2) [%] | cell count (SkMel30) [%] | cell count (SkMel5) [%] | cell count (UACC257) [%] | cell count (UACC62) [%] | cell count (WM115) [%] | cell count (WM1716) [%] | cell count (WM1745) [%] | cell count (WM3526) [%] | cell count (WM3619) [%] | cell count (WM451Lu) [%]
O=C(Nc1cc(C(F)(F)F)cc(C(F)(F)F)c1)c1cc(Cl)ccc1O + O=C(CCCCCCC(=O)Nc1ccccc1)NO [vorinostat] (first compound 0.016 µM, partner dose 0.08 µM) | 100 | 87.2 | 90.5 | 80.3 | 79.5 | 89 | 104 | 82.2 | 79.8 | 87 | 81.7 | 75.9 | 106 | 81.7 | 98.4 | 94.1
Cn1nnc2c(C(N)=O)ncn2c1=O [temozolomide] + Cn1cncc1[C@@](N)(c1ccc(Cl)cc1)c1ccc2c(c1)c(-c1cccc(Cl)c1)cc(=O)n2C [tipifarnib] (first compound 2 µM, partner dose 0.01 µM) | 91.3 | 102 | 86 | 91.4 | 77.9 | 83.8 | 70.7 | 99.7 | 58.7 | 60.4 | 90.6 | 87.7 | 94.4 | 95.9 | 98.6 | 75.2
O=C(O)c1ccc2c(c1)nc(Nc1cccc(Cl)c1)c1ccncc12 + NCC(=O)Nc1ccc(-n2nc(C(F)(F)F)cc2-c2ccc3c(ccc4ccccc43)c2)cc1 [OSU03012] (first compound 0.4 µM, partner dose 1 µM) | 99.9 | 60 | 101 | 108 | 83 | 72.1 | 62.1 | 95.2 | 76.2 | 87.5 | 79.1 | 104 | 94.7 | 49.1 | 78 | 40.6
Cn1nnc2c(C(N)=O)ncn2c1=O [temozolomide] + C=CCn1c(=O)c2cnc(Nc3ccc(N4CCN(C)CC4)cc3)nc2n1-c1cccc(C(C)(C)O)n1 [MK1775] (first compound 2 µM, partner dose 0.02 µM) | 87.5 | 96.7 | 95.8 | 93.3 | 63.5 | 103 | 81.8 | 94.5 | 93 | 67 | 79.8 | 55.5 | 81 | 96.5 | 88.9 | 81.1
O=C(O)[C@@H]1[O][Sb](=[O])([O][Sb]2(=[O])[O][C@H]([C@H](O)CO)[C@H](O)[C@H](C(=O)O)[O]2)[O][C@H]([C@H](O)CO)[C@@H]1O (stereo partly drawn) [stibogluconate] + Cc1ccc(NC(=O)c2cccc(N(C)C)c2)cc1NC(=O)c1ccc(O)cc1 [ZM336372] (first compound 2 µM, partner dose 2 µM) | 74.5 | 99.1 | 88.6 | 131 | 116 | 109 | 87.9 | 104 | 112 | 127 | 97 | 103 | 90.3 | 103 | 93 | 111
O=C(O)[C@@H]1[O][Sb](=[O])([O][Sb]2(=[O])[O][C@H]([C@H](O)CO)[C@H](O)[C@H](C(=O)O)[O]2)[O][C@H]([C@H](O)CO)[C@@H]1O (stereo partly drawn) [stibogluconate] + CCCCCCCCCCCC1=C(O)C(=O)C=C(O)C1=O [Embelin] (first compound 2 µM, partner dose 1.2 µM) | 104 | 110 | 92.9 | 107 | 103 | 102 | 105 | 98.1 | 113 | 98.3 | 102 | 95.1 | 102 | 107 | 123 | 112
O=C(O)c1ccc2c(c1)nc(Nc1cccc(Cl)c1)c1ccncc12 + O=c1cc(-c2cccc3c2Sc2ccccc2S3)oc(N2CCOCC2)c1 [KU55933] (first compound 0.4 µM, partner dose 1 µM) | 84.7 | 93.2 | 89 | 78.7 | 108 | 104 | 104 | 87.7 | 93.7 | 113 | 98.7 | 105 | 95.9 | 83.1 | 91.1 | 98.1
O=C(O)[C@@H]1[O][Sb](=[O])([O][Sb]2(=[O])[O][C@H]([C@H](O)CO)[C@H](O)[C@H](C(=O)O)[O]2)[O][C@H]([C@H](O)CO)[C@@H]1O (stereo partly drawn) [stibogluconate] + Cn1cc(/C=C2\C(=O)Nc3cccnc32)c2ccccc21 [GW441756] (first compound 2 µM, partner dose 0.4 µM) | 95.4 | 100 | 92.4 | 98.8 | 107 | 111 | 92.1 | 90 | 84.3 | 94.8 | 103 | 111 | 94.7 | 103 | 111 | 102
O=C(Nc1cc(C(F)(F)F)cc(C(F)(F)F)c1)c1cc(Cl)ccc1O + NC(=O)Nc1cc(-c2cccc(F)c2)sc1C(=O)N[C@H]1CCCNC1 [AZD7762] (first compound 0.016 µM, partner dose 0.02 µM) | 101 | 92.3 | 83 | 102 | 107 | 106 | 138 | 108 | 114 | 91.9 | 94.6 | 99.3 | 93.5 | 110 | 77.6 | 87.4
O=C(Nc1cc(C(F)(F)F)cc(C(F)(F)F)c1)c1cc(Cl)ccc1O + COC(=O)c1sccc1S(=O)(=O)Nc1ccc(Nc2ccccc2)cc1OC [GSK0660] (first compound 0.016 µM, partner dose 1 µM) | 91.7 | 97.7 | 103 | 92.2 | 94.6 | 110 | 107 | 94.6 | 88.1 | 96.8 | 91.9 | 128 | 99.7 | 81.6 | 87.8 | 71.1
O=C(Nc1cc(C(F)(F)F)cc(C(F)(F)F)c1)c1cc(Cl)ccc1O + N#Cc1c(O)c2c(-c3ccc(-c4ccccc4O)cc3)csc2[nH]c1=O [A769662] (first compound 0.016 µM, partner dose 2 µM) | 94.7 | 86 | 111 | 110 | 96.2 | 115 | 94.6 | 91.5 | 80.7 | 92.3 | 93 | 116 | 108 | 145 | 147 | 89.2
O=C(O)[C@@H]1[O][Sb](=[O])([O][Sb]2(=[O])[O][C@H]([C@H](O)CO)[C@H](O)[C@H](C(=O)O)[O]2)[O][C@H]([C@H](O)CO)[C@@H]1O (stereo partly drawn) [stibogluconate] + O=C(O)c1ccc(-c2c[nH]c3ncc(-c4ccccc4)cc23)cc1C1CCCC1 [GSK650394] (first compound 2 µM, partner dose 0.16 µM) | 93.9 | 97 | 123 | 111 | 106 | 104 | 146 | 103 | 95.2 | 102 | 98.4 | 95 | 133 | 97 | 118 | 101
O=C(O)c1ccc2c(c1)nc(Nc1cccc(Cl)c1)c1ccncc12 + CCCCCCCCCCCC1=C(O)C(=O)C=C(O)C1=O [Embelin] (first compound 0.4 µM, partner dose 1.2 µM) | 91.8 | 86.1 | 93.1 | 109 | 119 | 94.6 | 85.2 | 97.6 | 104 | 106 | 112 | 89.9 | 88.5 | 92.4 | 97.6 | 103
O=C(O)c1ccc2c(c1)nc(Nc1cccc(Cl)c1)c1ccncc12 + CC(C)CCN1c2nc(Nc3cc(F)c(O)c(F)c3)ncc2N(C)C(=O)C1C [BID1870] (first compound 0.4 µM, partner dose 0.2 µM) | 87.5 | 68.4 | 94.8 | 110 | 89 | 81.8 | 77.2 | 81.4 | 71.3 | 92.3 | 88.3 | 74.9 | 99 | 64.2 | 112 | 85.4
Cn1nnc2c(C(N)=O)ncn2c1=O [temozolomide] + O=C(O)c1ccc(-c2c[nH]c3ncc(-c4ccccc4)cc23)cc1C1CCCC1 [GSK650394] (first compound 2 µM, partner dose 0.16 µM) | 76.7 | 90.3 | 94.1 | 96.7 | 74.8 | 93.9 | 69.3 | 110 | 122 | 79.9 | 88.8 | 76.4 | 86.6 | 84.9 | 108 | 68.5
O=C(O)c1ccc2c(c1)nc(Nc1cccc(Cl)c1)c1ccncc12 + O=C(CCCCCCC(=O)Nc1ccccc1)NO [vorinostat] (first compound 0.4 µM, partner dose 0.08 µM) | 103 | 86.1 | 95.3 | 108 | 109 | 84.2 | 92.8 | 100 | 117 | 101 | 102 | 90.4 | 123 | 106 | 59.5 | 105
O=C(Nc1cc(C(F)(F)F)cc(C(F)(F)F)c1)c1cc(Cl)ccc1O + OCCn1cc(-c2cnc3nnn(Cc4ccc5ncccc5c4)c3n2)cn1 [PF04217903] (first compound 0.016 µM, partner dose 1 µM) | 101 | 109 | 104 | 94.2 | 90.8 | 89.7 | 115 | 91.2 | 98.3 | 90.9 | 106 | 107 | 126 | 98.8 | 97.3 | 123
O=C(O)c1ccc2c(c1)nc(Nc1cccc(Cl)c1)c1ccncc12 + O=C(Nc1ccccc1)c1cc([N+](=O)[O-])ccc1Cl [GW9662] (first compound 0.4 µM, partner dose 2 µM) | 83.4 | 81.6 | 102 | 107 | 93.7 | 93.8 | 77.6 | 106 | 97.7 | 98.2 | 97.1 | 112 | 88 | 87.9 | 87.2 | 85.1
